Measured values: PMC4336329 (PLoS ONE, 2015)
Hit rate of the full screen: of about 310,000 compounds, about 2,200 (0.71%) showed an effect of 50% or more. Effects have a minus sign here. The list shows a part of the results.

target: human ether-à-go-go-related gene (hERG) potassium channel (human, UniProt Q12809); assay: primary screen, population patch clamp on CHO cells stably expressing hERG
Sequence (Q12809 whole entry, looked up): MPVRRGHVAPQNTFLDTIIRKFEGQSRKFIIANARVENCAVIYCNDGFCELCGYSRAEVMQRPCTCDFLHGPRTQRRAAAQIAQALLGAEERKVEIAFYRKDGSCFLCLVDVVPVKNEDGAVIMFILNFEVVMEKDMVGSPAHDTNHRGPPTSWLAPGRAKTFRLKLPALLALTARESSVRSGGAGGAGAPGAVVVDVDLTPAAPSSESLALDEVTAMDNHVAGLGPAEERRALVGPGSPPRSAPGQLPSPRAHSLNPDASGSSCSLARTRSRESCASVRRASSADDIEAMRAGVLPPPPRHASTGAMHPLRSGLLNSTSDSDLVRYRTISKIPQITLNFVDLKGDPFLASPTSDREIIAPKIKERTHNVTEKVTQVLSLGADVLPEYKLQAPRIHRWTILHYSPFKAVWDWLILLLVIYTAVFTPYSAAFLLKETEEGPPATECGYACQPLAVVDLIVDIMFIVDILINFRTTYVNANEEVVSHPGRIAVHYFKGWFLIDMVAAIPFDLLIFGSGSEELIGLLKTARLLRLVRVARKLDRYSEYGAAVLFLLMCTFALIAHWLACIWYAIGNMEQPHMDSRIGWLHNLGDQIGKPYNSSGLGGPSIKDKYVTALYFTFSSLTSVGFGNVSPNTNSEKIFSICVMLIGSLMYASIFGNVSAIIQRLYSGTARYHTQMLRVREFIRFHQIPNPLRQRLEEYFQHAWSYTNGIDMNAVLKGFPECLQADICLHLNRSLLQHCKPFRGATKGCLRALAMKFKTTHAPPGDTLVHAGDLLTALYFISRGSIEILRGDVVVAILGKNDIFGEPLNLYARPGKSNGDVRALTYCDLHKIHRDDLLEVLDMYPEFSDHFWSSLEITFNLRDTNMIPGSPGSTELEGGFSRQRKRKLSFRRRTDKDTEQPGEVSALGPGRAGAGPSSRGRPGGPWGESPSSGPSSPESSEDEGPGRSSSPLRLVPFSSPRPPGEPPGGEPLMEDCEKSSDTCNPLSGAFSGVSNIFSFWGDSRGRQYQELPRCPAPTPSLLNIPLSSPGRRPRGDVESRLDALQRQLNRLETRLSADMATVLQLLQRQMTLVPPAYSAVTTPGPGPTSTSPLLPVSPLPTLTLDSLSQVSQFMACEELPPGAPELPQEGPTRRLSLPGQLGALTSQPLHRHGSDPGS

Structure (SMILES) | hERG current change (%, negative = inhibition) at 1uM [%]
CCOc1ccc(OCCN2C(=O)NC3(CCCc4ccccc43)C2=O)cc1 (stereo not drawn) | 3.7
CCN1CCN(C(=O)C2COc3ccccc3O2)CC1 (stereo not drawn) | 1.63
Cc1c(C(=O)O)cccc1-c1ccc(/C=C2/NC(=O)N(c3ccccc3)C2=O)o1 | 24.8
O=C(CN1C(=O)c2ccccc2S1(=O)=O)NC1CCCC1 | 14.6
Cc1ccc2oc(C(=O)N(Cc3ccncc3)CC3CCCO3)c(C)c2c1 (stereo not drawn) | 0.601
O=C(CCc1ccccc1)NCCSCc1c(F)cccc1Cl | 7.76
Cc1cc(C)n2nc(C)c(-c3ccc(Cl)cc3)c2n1 | 19.4
O=C(N/N=C/c1cn(-c2ccccc2)nc1-c1cc2ccccc2o1)c1c[nH]c2ccccc12 | 19.5
CCN(CC)c1ccc(S(=O)(=O)N2CCOCC2)cc1NC(=O)CSC(=S)N1CCCC1 | -9
Cc1ccccc1C(=O)NCC(=O)c1ccccc1 | 4.83
CCN(CC)S(=O)(=O)c1cc(NC(=O)c2ccc3c(c2)NC(=O)C(C)S3)ccc1C (stereo not drawn) | 7.51
O=C(Cc1cccs1)N(Cc1ccco1)C1(C(=O)NC2CCCCC2)CCCCC1 | 8
CCOC(=O)N1CCN(S(=O)(=O)c2ccc(C(=O)Nc3nc4c(s3)CC(C)CC4)cc2)CC1 (stereo not drawn) | 14
Cc1cc(F)ccc1NCc1ccncc1 | -1.09
Cc1ccccc1CN(C)CC(=O)NC(C)CCc1ccccc1 (stereo not drawn) | 3.54
COc1ccc(N2CCN(C(=O)CCN3C(=S)NC(C)(C)CC3C)CC2)cc1 (stereo not drawn) | 21.8
COc1ccc(CCNc2c(C)c(C)nc3ncnn23)cc1 | -4.13
COc1ccc(CNC(=O)COC(=O)c2cccc(S(=O)(=O)N3CCOCC3)c2)cc1 | -2.3
CC1=C(C(N)=O)C(c2ccncc2)n2nc(-c3ccccc3Cl)nc2N1 (stereo not drawn) | 12.7
N#CC1=C2SCN(Cc3ccccc3)CN2C(=O)CC1c1cccs1 (stereo not drawn) | 10.2
CCn1c(=O)c(C(=O)Nc2ccccc2)c(O)c2ccccc21 | 11.4
CCc1ccc(NC(=O)CN(c2ccc(OC)cc2)S(=O)(=O)c2c(C)nn(C)c2C)cc1 | 21.3
COc1cc(-c2nc(S(=O)(=O)c3ccc(C)cc3)c(N3CCOCC3)o2)cc(OC)c1OC | 8.44

Structure (SMILES) | hERG current change (%, negative = inhibition) at 1uM [%]
CCCCOC(=O)n1c(=O)oc2ccccc21 | 7.17
COc1nc(N/N=C/c2ccc(-c3ccccc3[N+](=O)[O-])o2)nc(N2CCOCC2)n1 | 8.99
Cc1ccc(C(=O)Nc2ccccc2N2CCN(C(=O)C(C)C)CC2)cc1 | 1.8
c1ccc(CCN2CCC3(CC2)OCCO3)cc1 | 13.2
CCC(COC(=O)NC)NC(=O)Oc1cccc(C)c1 (stereo not drawn) | 4.35
COc1cccc(-c2c[nH]c(=O)[nH]c2=O)c1 | 12.9
CCN(CC)CCCn1c2c(c(SCC(=O)Nc3cc(C)on3)nc1=O)CCC2 | 11.4
CCCCC(C(=O)NC(C)c1ccccc1)C(=O)NC(C)c1ccccc1 (stereo not drawn) | 13.6
CN1C(=O)[C@@H]2[C@H](C1=O)[C@@H]1C(=O)Nc3ccccc3C(=O)N1[C@@H]2c1ccc(Br)cc1 | -16.7
O=C(CN1C(=O)COc2ccccc21)c1ccc(Cl)cc1 | -9.7
O=C(Nc1ccc(Cl)cc1C(F)(F)F)C(Sc1nnc(-c2cccs2)o1)c1ccccc1 (stereo not drawn) | 0.359
CC1CC(=O)N(C)c2cc([N+](=O)[O-])ccc2N1 (stereo not drawn) | -0.923
COCCCNC(=S)Nc1ccc(N2CCCCC2)cc1 | 1.68
NS(=O)(=O)c1ccc(NC(=S)NC2CCCC2)cc1 | 11.8
COC(=O)/C(N=Nc1c(C)n(C)n(-c2ccccc2)c1=O)=C(\C)O | 10.8
O=C(NNc1c([N+](=O)[O-])cc(C(F)(F)F)cc1[N+](=O)[O-])c1ccco1 | 13.7
CSc1c(-c2ccccc2)nc2ccccc2c1C(=O)O | 15.7
Cc1ccc(N(CC(O)CN2CCCC2)S(=O)(=O)c2ccccc2)cc1 (stereo not drawn) | -47.4
Cc1ccccc1CC1(CO)CCCN(C(=O)CCC(F)(F)F)C1 (stereo not drawn) | 9.79
O=C(Oc1ccccc1)c1cccc2cccnc12 | 6.02
CCCCCCCCOC(=O)CCn1[nH]c(=O)c2ccccc2c1=O | 0.0369
O=C(/C=C/c1c(F)cccc1Cl)NCCCN1CCOCC1 | -5.67
COCc1cc(C)n(CC(=O)OC)c(=O)c1C#N | 12.5

Structure (SMILES) | hERG current change (%, negative = inhibition) at 1uM [%]
COc1cccc(N2CCN(C(=O)CN3C(=O)NC4(CCCC4)C3=O)CC2)c1 | 9.11
Cc1ccc(NC(=O)CN(C)CC(=O)N(CC(C)C)c2c(N)n(CC(C)C)c(=O)[nH]c2=O)c(C)c1 | 6.99
Cc1csc2ncc(C(=O)Nc3ccccc3F)c(=O)n12 | 5.28
Cc1[nH]n(C(N)=S)c(=O)c1N=Nc1ccc(Br)cc1 | 16.2
COc1cccc(C(C(=O)NC2CCCCC2)N(C(=O)c2ccco2)c2ccc(-n3cnnn3)c(C)c2)c1 (stereo not drawn) | 11.5
CCN(CC)CCCNC(=S)N(CCO)Cc1cc2cc3c(cc2[nH]c1=O)OCO3 | 6.5
CCc1ccc(Oc2cc(Cl)nc(N)n2)cc1 | 16.8
CC(=O)Nc1ccccc1NC(=O)C(F)(F)F | 12.9
Cc1c(-n2cc(C(=O)O)c(=O)c3cc(F)c(N4CCCC4)c(F)c32)c(=O)n(-c2ccccc2)n1C | 10.4
CCN(CC)S(=O)(=O)c1cccc(C(=O)Nc2nnc(C)s2)c1 | 7.96
NC(=S)N/N=C/c1coc2ccccc2c1=O | 14.1
Cc1cc(N2CCN(S(=O)(=O)c3ccccc3)CC2)nc2c(C)cccc12 | 17
Cc1cc(C(=O)N/N=C2\CCCc3ccccc32)c(C)o1 | 13.2
COc1cnc(N(C)C)nc1Sc1ccc(Cl)cc1 | 11.1
O=C(COC(=O)c1ccc(NS(=O)(=O)c2cccs2)cc1O)Nc1nc2ccccc2s1 | 10.5
CC(C)C(NC(=O)c1ccccc1)C(=O)NC1=NCCS1 (stereo not drawn) | 11.4
COc1cccc(-c2[nH]nc3c2C(c2ccsc2)C(C#N)=C(N)O3)c1 (stereo not drawn) | 3.18
Cc1cc(C)nc(-n2nc(C)c(C3(O)C(=O)Nc4ccc(F)cc43)c2N)n1 (stereo not drawn) | 8.77
Cc1ccc(C)c(S(=O)(=O)Nc2cccc(-n3cnnn3)c2)c1 | 10.9
O=C(N/N=C/c1cc2ccccc2[nH]1)c1ccccc1Cl | 10.6
CN(C)S(=O)(=O)c1ccc(C(=O)Nc2ccccc2[N+](=O)[O-])cc1 | 5.27
Cc1noc(C)c1COC(=O)c1cccc(N(C)C)c1 | 11.6
CN(CC(=O)Nc1cccc(F)c1)C(=O)CCCn1c(=O)oc2ccccc21 | -21.7

Structure (SMILES) | hERG current change (%, negative = inhibition) at 1uM [%]
COc1ccc(/C=C/C(=O)NC(=S)NNC(=O)c2cnccn2)cc1 | 18.8
CCCn1nc2cc(C(=O)NCCCCc3ccccc3)ccc2c1OCC | 7.48
COC(=O)CCCNC(=O)OCc1ccc([N+](=O)[O-])cc1 | -3.88
COc1ccc(CC(=O)NNC(=S)Nc2ccc(Br)cc2)cc1 | 4.75
COC(=O)N/N=C(\C)c1ccc(Br)cc1 | 8.75
CC1(C)CC(=O)C=C(NC2=CC3OC(c4ccccc4)OCC3OC2=O)C1 (stereo not drawn) | 13.4
COc1ccc(C(=O)CCN2CCN(c3ccccc3F)CC2)cc1.Cl | -39.4
CC(=O)N1c2ccc(S(=O)(=O)N3CCC(C(=O)NCc4ccc(F)cc4)CC3)cc2CC1C (stereo not drawn) | 11.2
CS(=O)(=O)NNC(=O)Cn1nnc(-c2ccc(OCc3ccccc3Cl)cc2)n1 | 15.3
CCN(CCCNC(=O)C1CCN(S(=O)(=O)c2cnc[nH]2)CC1)c1ccccc1 | 14.4
COc1cc2c(cc1OC)CN(S(=O)(=O)c1cccc(F)c1)CC2 | 16.9
Cc1[nH]c(=O)[nH]c(=O)c1N1CCOCC1 | 9.51
O=C(Nc1cnccn1)c1csc2ccccc12 | 11.2
Cc1ccc(C2C(=O)N(C3CCCC3)CC(=O)N2C2CCCCC2)cc1 (stereo not drawn) | -12.9
CCCCNC(=O)CCSc1nc2nc(C)cc(C)n2n1 | 6.29
Cc1cc(NC(=O)CSc2nnc(Nc3ccccc3F)s2)no1 | 11.2
O=C(CSc1nnc(CNC(=O)c2ccccc2)o1)c1ccc(Cl)cc1 | 1.46
Cc1cnc(C(=O)NC2CCSc3ccccc32)cn1 (stereo not drawn) | 19
CCOc1ccc(NC(=O)CC2Nc3ccccc3NC2=O)cc1 (stereo not drawn) | 9.45
COc1c(C)cc(C(=O)C2CCCN(C(=O)CCCn3cncn3)C2)cc1C (stereo not drawn) | 6.5
O=C(CN1CCN(Cc2ccc(Cl)cc2)CC1)N/N=C/c1cccs1 | -30.9
